Activation data for 23 molecules are collected here from PubChem BioAssay AID1346428 (National Center for Advancing Translational Sciences (NCATS), 2018).

The whole screen tested about 48,000 compounds, of which about 1,200 (2.5%) were called active. Inconclusive results (about 2%) are left out.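 Rule for the calls: active = activation of at least 60% and not above a set upper limit (about 1 call in 100 departs from these limits); inconclusive = activation of 40% to 60%, or above that upper limit; inactive = activation under 40%.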 The list shows a part of the results.

Chain of UniProt O75388 (O75388 whole entry, looked up): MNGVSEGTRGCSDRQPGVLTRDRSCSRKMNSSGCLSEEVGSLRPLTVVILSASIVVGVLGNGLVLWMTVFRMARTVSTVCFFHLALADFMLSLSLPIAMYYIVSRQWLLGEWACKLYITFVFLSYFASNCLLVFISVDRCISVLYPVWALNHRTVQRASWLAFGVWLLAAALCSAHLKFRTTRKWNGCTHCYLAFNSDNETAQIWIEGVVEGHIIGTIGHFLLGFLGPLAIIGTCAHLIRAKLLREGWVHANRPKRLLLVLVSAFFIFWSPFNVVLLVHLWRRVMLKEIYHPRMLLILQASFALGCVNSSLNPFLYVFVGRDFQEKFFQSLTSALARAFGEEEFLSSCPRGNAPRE

This test deals with Probable G-protein coupled receptor 32 (Homo sapiens) (UniProt O75388). Kind of test: qHTS for Agonists of Human Resolvin D1 Receptor DRV1. Note: 0% is about no effect. As to conditions: CHO-K1 GPR32 beta-arrestin PathHunter luminescence, 90 min; at 76.9 µM; stronger effect = higher value; zero percent set by DMSO-only wells. In short, it runs like this:
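CHO-K1 cells stably expressing ProLink-tagged GPR32 and Enzyme Activator-tagged beta-arrestin were seeded at 2,500 cells/well overnight, exposed to compounds for 90 min at 37 °C, then read by beta-Gal complementation chemiluminescence after 1 h detection reagent.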
(In qHTS, concentration-response curves come from the screen itself.)
Regarding `CCOC(=O)Cn1c(=O)n(CC2CCCO2)c2nc(-c3cccc(C)c3)nc(C(N)=O)c21` (stereo not drawn), the activation is inactive: -2.53%. As for `CCOc1ccccc1NC(=O)CCc1c(C)nn(-c2ccc(N3CCOCC3)nn2)c1C`, the figure is inactive: 9.21%.

As to `Cc1ccc(NC(=O)CSc2ncn[nH]2)cc1C`, the activation was inactive: -5.87%. As for `CNS(=O)(=O)c1cn(CC(=O)Nc2cccc(OC)c2)cc1S(=O)(=O)NC`, the figure is inactive: -7.41%. The same measure for `Cc1c(Cl)cccc1NC(=O)c1noc2c1CCCC2`: inactive: -12.2%; for `CCC(=O)N1c2ccccc2CC1C(=O)NCCN1CCN(c2cccc(C(F)(F)F)c2)CC1` (stereo not drawn): inactive: 10.8%; for `CCn1c(C)c(C)c2cc(C(=O)NCCCN3CCCCC3)ccc21`: inactive: -3.22%.

In the case of `Cc1ccc(C)c(N2CCN(Cc3nnc(-c4ccc5c(c4)OCO5)o3)CC2)c1`, the activation is inactive: -11.8%.

Take `Cn1c(=O)oc2cc(S(=O)(=O)NC(Cc3ccccc3)C(=O)NCc3ccc(F)cc3)ccc21` (stereo not drawn): the activation was inactive: -6.14%. As for `COc1ccccc1OC(C)C(=O)Nc1c(C(=O)c2ccc(Cl)cc2)oc2ccccc12` (stereo not drawn), the figure is inactive: -2.39%; as for `CCOc1ccc(NC(=O)CC2C(=O)N(c3ccccc3)C(=O)N2C2CCCCC2)cc1` (stereo not drawn), inactive: -8.98%. The same measure for `Cc1ccn2c(Nc3ccc4c(c3)OCO4)c(-c3ccc(N(C)C)cc3)nc2c1`: inactive: -13.5%; for `COc1ccc(CNC(=O)c2nc(SC(C)C)ncc2Cl)cc1`: inactive: -7.88%.

For `COc1ccccc1CNC(=O)NCc1noc2ccc(C)cc12`, the activation is inactive: -7.67%. As for `O=c1c2cn[nH]c2nc(SCc2cccc(Br)c2)n1-c1ccc(Cl)cc1`, the figure is inactive: -25.3%; as for `Cc1nc2ccc(S(=O)(=O)CCC(=O)Nc3ccc(C)c(C)c3)cc2s1`, inactive: -9.05%; as for `CCOC(=O)c1c(-c2ccccc2)csc1NC(=O)c1cc(-c2ccc(Br)cc2)on1`, inactive: -10.8%. As for `CCOc1ccc(CCNC(=O)CCc2c(C)nc3c(-c4ccccc4)c(C)nn3c2C)cc1OCC`, the figure is inactive: -15.5%; as for `COCCCNC(=O)c1sc2nc3n(c(=O)c2c1C)CCC3`, inactive: 5.27%; as for `O=C(Cn1cc(S(=O)(=O)N2CCCC2)c(S(=O)(=O)N2CCCC2)c1)Nc1cccc(F)c1`, inactive: 11.5%. As for `COc1ccccc1CNC(=O)CN1C(=O)COc2ccc(S(=O)(=O)N3CCC(C)CC3)cc21`, the figure is inactive: -18.3%; as for `C=CCC(CC=C)(CNC(=O)C(=O)Nc1cc(C)ccc1OC)c1ccc(OC)c(OC)c1`, inactive: -10.5%. Regarding `CCOc1ccc(C2=NC(c3ccc(OC)cc3)=Nc3ccc(Cl)cc3N2)cc1`, the activation is inactive: -15.1%.
